# Results published in PubChem BioAssay AID938 (National Center for Advancing Translational Sciences (NCATS), 2007).
# Out of some 73,000 compounds screened, about 1,800 (2.5%) were called active. The inconclusive results got no clear call from the source; some entries with a clear call stand among them for comparison. Calls follow the shape of the dose curve; as a rule, active = well fitted activation curve with a large enough effect; inconclusive = small, poorly fitted or top-dose-only effect; inactive = no such curve, though single readings can be large or run the other way. Potencies of inconclusive entries are left out as doubtful fits.
# Assay: qHTS Assay for Agonists of the Thyroid Stimulating Hormone Receptor: Activators of Intracellular cAMP Concentrations in Parental HEK 293; also: nearly all actives have a fitted effect of over 55% in size; as to activation: % of control where 0% means no effect
# Details: parental HEK293 CNG cAMP sensor, membrane potential fluorescence; activation: at 57.1 µM (top of the series) unless noted
# Outline: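 Parental HEK 293 cells stably expressing a modified CNG channel (no TSHR) report cAMP rise as membrane depolarization. Membrane potential dye with 100 uM RO 20-1724 was loaded for 60 min at room temperature, then compound added for 30 min; fluorescence read at 590 nm.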
# Potency is read from the fitted curve at half-maximal effect; tags tell the direction and shape of the fitted curve.
SMILES,Potency,activation
COc1cccc(-c2nn(C)c3sc(C(=O)NCc4ccco4)cc23)c1,inactive,
Cc1sc2nc(SCC(=O)c3cccs3)n(Cc3ccco3)c(=O)c2c1C,"inconclusive [activator, single point]",
CC(=O)c1cc(-c2ccccc2)n(CC(=O)NCc2cccs2)c1C,active: 15.8 µM,
CCN(CC)c1ccc(-n2cc3c(=O)n(C)c(=O)n(C)c3c2)cc1,inactive,
CC(C)c1ccc(Nc2nc(NCc3ccco3)nc(N3CCOCC3)n2)cc1,"inconclusive [activator, single point]",
COc1ccc(Cl)cc1Nc1cc(C)nc2nc(C)nn12,"inconclusive [activator, full curve, poor fit]",
O=C(O)CCSC1=NCCN1,,inactive: 3.38% [at 11.4 µM]
O=C(CSc1nnc(Cc2ccccc2)n1Cc1ccco1)NC12CC3CC(CC(C3)C1)C2,"inconclusive [activator, full curve]",
COc1ccc(S(=O)(=O)NCc2ccco2)cc1-c1nnc2c3ccccc3c(C)nn12,inactive,
CCOC(=O)Nc1cc(OC)c(OC)cc1Cc1nccc2cc(OC)c(OC)cc12,inactive,
Cc1csc(-c2cnn(-c3ccccc3)c2NC(=O)c2ccccc2)n1,"inconclusive [activator, partial curve]",
O=C(Nc1cccc2ccccc12)OC1C=CS(=O)(=O)C1 (stereo not drawn),active: 31.6 µM,
O=S(=O)(NC1=NCCCCC1)c1cccs1,"inconclusive [activator, single point]",
Cc1ccc(-c2nc(CS(=O)CC(=O)NCc3ccc(Cl)cc3)c(C)o2)cc1 (stereo not drawn),"inconclusive [activator, partial curve]",
COc1ccc(-c2nc(C#N)c(NCC3CCCO3)o2)cc1OC (stereo not drawn),inactive,
CCOc1ccccc1N1CC(C(=O)Nc2ccccc2N2CCOCC2)CC1=O (stereo not drawn),inactive,
CC(C)CCNC(=O)CN(C)S(=O)(=O)c1cccc2nsnc12,"inconclusive [activator, single point]",
COc1ccc(C(=O)N2CCC[C@@]3(CCN(c4cccc(-c5ccccc5)c4)C3)C2)cc1,inactive,
CC1(C)CC(=O)C=C(NC2CC(C)(C)NC(C)(C)C2)C1,"inconclusive [activator, partial curve]",
O=C(c1ccco1)c1nnn(Cc2ccccc2)c1-c1ccccc1,active: 31.6 µM,
O=C(CSc1nc2ccccc2c(=O)n1Cc1ccco1)N1CCN(c2ccccc2)CC1,"inconclusive [activator, partial curve]",
COCCOC(=O)c1c(C)oc2ccc(O)c(CN3CCC(C)CC3)c12,"inconclusive [activator, full curve]",
Cc1ccc(C(=O)N2CCN(c3ccc(Cl)cc3)CC2)cc1,,inconclusive: 33% [activator]
COc1ccccc1CNc1ccnc(-c2c(C)noc2C)n1,"inconclusive [activator, single point]",

SMILES,Potency,activation
COc1cccc(Cn2c(=O)c(-c3ccc(Cl)cc3)nc3cnc(OC)nc32)c1,"inconclusive [activator, single point]",
O=S(=O)(N1CCOCC1)n1c(Cc2ccccc2)nc2ccccc21,"inconclusive [activator, single point]",
COc1cc(NC(=O)C2CC(=O)NC3=C2C(=O)CC(C)(C)C3)c(OC)cc1Cl (stereo not drawn),"inconclusive [activator, single point]",
Cc1nc2nc(-c3ccccc3)cc(=O)n2[nH]1,inactive,
CC(C)CC(c1nnnn1C(C)(C)C)N1CCN(C2CCCC2)CC1 (stereo not drawn),active: 12.6 µM,
O=C(CSc1nc(-c2ccco2)cc(C(F)(F)F)n1)N1CCCc2ccccc21,"inconclusive [activator, single point]",
O=C(CSc1nnc(-c2ccco2)n1Cc1ccco1)NCc1cccs1,"inconclusive [activator, partial curve, poor fit]",
CNc1ncncc1-c1ccc(C(=O)N(C)C)cc1,inactive,
COc1ccc(OC)c(S(=O)(=O)Nc2ccc3oc4c(c3c2)C(=O)CCC4)c1,,inconclusive: 32.8% [activator]
C/C(CCN1CCCCc2nc(C)c(C)cc21)=N\OC[C@@H](O)COCc1ccco1,,inactive: 10.8% [at 11.4 µM]
Cc1cnc(NC(=O)CSc2nnc(-c3ccccc3)n2Cc2ccccc2)s1,"inconclusive [activator, full curve]",
Cc1ccccc1OCC(=O)OC(C)CN1CCN(C)CC1 (stereo not drawn),inactive,
CN(C)c1ccnc(-c2ccccc2C(F)(F)F)n1,"inconclusive [activator, single point]",
CCC(=O)c1ccc(OCC(O)CN2CCN(S(=O)(=O)N3CCCCC3)CC2)cc1 (stereo not drawn),"inconclusive [activator, single point]",
NCCNCCNCCNCCN,inactive,
CCCn1c(SCC(=O)Nc2ccccc2-c2ccccc2)nnc1-c1ccoc1C,active: 15.8 µM,
COc1ccc2cc(CN(CCCN3CCOCC3)Cc3nnnn3C3CCCCC3)c(=O)[nH]c2c1,"inconclusive [activator, single point]",
CCCC1(C(=O)OC)C=C2C(=C(C(C)C)C(=O)C2C)CN1 (stereo not drawn),"inconclusive [activator, full curve, poor fit]",
Cc1cc(C)c(OCC(=O)Nc2ccccc2N2CCOCC2)c(C)c1,"inconclusive [activator, single point]",
Cc1ccccc1-c1cncnc1NCc1cccs1,active: 15.8 µM,
O=S(=O)(c1cccc(-c2nnc(SCc3ccc(Cl)cc3)o2)c1)N1CCCCC1,"inconclusive [activator, full curve]",
CCCCC(CC)COC(=O)c1ccccc1C(=O)O (stereo not drawn),inactive,
Cc1ccc(S(=O)(=O)Nc2cc(=O)[nH]c3c2CCC3)cc1,,inactive: 1.06% [at 11.4 µM]
c1ccc2c(N3CCCCC3)nc(N3CCCC3)nc2c1,active: 12.6 µM,
